Measurements reported in PubChem BioAssay AID485360 (National Center for Advancing Translational Sciences (NCATS), 2010).
Out of some 230,000 compounds screened, about 1,500 (0.65%) were called active. Inconclusive results, whose numbers are uncertain, are shown with a selection of clear calls. Calls follow the shape of the dose curve; as a rule, active = well fitted inhibition curve with a large enough effect; inconclusive = small, poorly fitted or top-dose-only effect; inactive = no such curve, though single readings can be large or run the other way. Potencies of inconclusive entries are doubtful fits and often do not repeat.

target: Lethal(3)malignant brain tumor-like protein 1 (Homo sapiens) (UniProt Q9Y468); experiment: qHTS Assay for the Inhibitors of L3MBTL1; settings: AlphaScreen L3MBTL1–H3K9me1 peptide binding; series mostly up to 57.1 µM; also: nearly all actives have a fitted effect of over 60% in size
How it was run: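 First, the protein-peptide complex forms for 30 min at room temperature (L3MBTL1 50 nM, biotinylated H3K9me1 peptide 75 nM). Next, compounds are pin-transferred and incubated 30 min. Finally, AlphaScreen beads are added and read after 30 min.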
Potency is read from the fitted curve at half-maximal effect; tags tell the direction and shape of the fitted curve.

Sequence of UniProt Q9Y468 (Q9Y468 whole entry, looked up): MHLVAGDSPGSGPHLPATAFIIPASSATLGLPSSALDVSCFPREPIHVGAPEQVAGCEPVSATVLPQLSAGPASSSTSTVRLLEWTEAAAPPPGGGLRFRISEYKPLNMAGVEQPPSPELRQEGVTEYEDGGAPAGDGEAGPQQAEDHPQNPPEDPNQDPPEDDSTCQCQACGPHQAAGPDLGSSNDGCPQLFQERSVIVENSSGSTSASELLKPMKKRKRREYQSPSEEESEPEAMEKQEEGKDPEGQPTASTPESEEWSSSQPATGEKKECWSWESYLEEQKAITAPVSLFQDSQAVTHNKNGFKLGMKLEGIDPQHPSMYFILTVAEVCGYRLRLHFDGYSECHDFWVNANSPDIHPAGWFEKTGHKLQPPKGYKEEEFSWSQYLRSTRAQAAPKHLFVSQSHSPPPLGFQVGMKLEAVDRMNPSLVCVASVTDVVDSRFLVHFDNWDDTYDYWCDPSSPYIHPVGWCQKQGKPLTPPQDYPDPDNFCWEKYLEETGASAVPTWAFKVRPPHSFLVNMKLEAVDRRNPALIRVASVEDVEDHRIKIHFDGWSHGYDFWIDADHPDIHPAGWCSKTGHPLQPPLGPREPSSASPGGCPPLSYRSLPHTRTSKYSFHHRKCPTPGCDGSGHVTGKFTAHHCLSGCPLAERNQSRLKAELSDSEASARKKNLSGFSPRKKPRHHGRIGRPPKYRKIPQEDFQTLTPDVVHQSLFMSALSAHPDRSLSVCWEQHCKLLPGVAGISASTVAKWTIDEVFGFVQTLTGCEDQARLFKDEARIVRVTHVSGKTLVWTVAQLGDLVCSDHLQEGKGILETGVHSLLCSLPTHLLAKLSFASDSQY

Compound	Potency
Cc1ccc(C)c(-n2c(SCC(=O)NC(C(=O)O)C(C)C)nnc2-c2cccc(Cl)c2)c1 (configuration not stated)	inactive
Cc1nn(-c2ccccc2)c2c1C1(C(=O)N(C)c3ccccc31)C(C#N)=C(N)O2 (configuration not stated)	inactive
NC(=NCCc1c[nH]c2ccccc12)NC(=O)c1ccc(Cl)cc1	inconclusive: 0.1 µM [inhibitor, full curve, poor fit]
Oc1cccc2c(NC(=S)Nc3ccc(SC(F)F)cc3)cccc12	inconclusive: 12.6 µM [inhibitor, partial curve]
Cc1cc(=O)[nH]c(/N=C(\N)Nc2ccc(SC(F)F)cc2)n1	inconclusive: 6.31 µM [inhibitor, single point]
C/C(O)=C(\C#N)c1nnc2n1CCCCC2	inactive
Cc1onc(-c2c(Cl)cccc2Cl)c1COC(=O)c1ccc(Cl)cc1[N+](=O)[O-]	inconclusive: 14.1 µM [inhibitor, partial curve]
CC(C)C(NC(=O)c1ccccc1)C(=O)OCc1cc([N+](=O)[O-])cc2c1OCOC2 (configuration not stated)	inconclusive: 0.794 µM [inhibitor, single point]
c1ccc(-c2nn3c(Cn4nnc5ccccc54)nnc3s2)nc1	inconclusive: 35.5 µM [inhibitor, single point]
CCOc1ccc(C(C)=O)cc1N1C(=O)C2C3C=CC(C3=C(C)C)C2C1=O (configuration not stated)	inactive
Cc1cc(C)cc(N2C(=O)c3nccnc3C2=O)c1	inactive
COc1cccc(OC)c1C(=O)Nn1c(-c2cccc(C)c2)nc2ccccc2c1=O	inconclusive: 10 µM [inhibitor, partial curve, poor fit]
O=C(O)CNS(=O)(=O)c1ccc(C2CCCCC2)cc1	inactive
CCSc1oc(-c2cccs2)nc1S(=O)(=O)c1ccccc1	inconclusive: 7.08 µM [inhibitor, full curve]
Cc1cc(N)n(-c2ccc(Oc3ccccc3)c(S(=O)(=O)O)c2)n1	inconclusive: 22.4 µM [inhibitor, single point]
Cc1cc(C)n(CC(=O)NNC(=O)COc2ccc(Br)cc2F)n1	inconclusive: 39.8 µM [inhibitor, single point]
Cc1ccc[n+](Cc2ccc([N+](=O)[O-])cc2)c1	inconclusive: 31.6 µM [inhibitor, single point]
CCN(CC)c1ccc2nc3ccc(N)cc3[n+](-c3ccccc3)c2c1	inconclusive: 39.8 µM [inhibitor, single point]
O=c1oc(-c2ccc(O)c(O)c2)cc2cc(O)cc(O)c12	inconclusive: 39.8 µM [inhibitor, single point]
O=C(COC(=O)c1ccccc1NCCO)Nc1cccc(S(=O)(=O)NC2=NCCCCC2)c1	inconclusive: 20 µM [inhibitor, partial curve]
COC(=O)c1ccc(N=Nc2ccccc2)cc1	inconclusive: 3.16 µM [inhibitor, partial curve]
C=CCNc1nc(N(c2ccccc2)c2ccccc2)nc(-n2ccnc2)n1	inconclusive: 35.5 µM [inhibitor, single point]
N/C(=N\OC(=O)c1ccc(Cl)cc1)c1ccc(Cl)cc1	inconclusive: 3.98 µM [inhibitor, partial curve]
Cc1ccc(S(=O)(=O)Nc2csc(C)c2C(=O)O)cc1	active: 7.94 µM

Compound	Potency
Cc1ccc2cc(C#N)c(SCC(=O)NCc3ccco3)nc2c1	inconclusive: 35.5 µM [inhibitor, single point]
Cc1nc(COC(=O)c2cc(O)c3ccccc3c2O)cs1	inactive
O=[N+]([O-])c1ccc(/C=N/Nc2ccc3ccccc3c2)o1	inconclusive: 25.1 µM [inhibitor, single point]
CSc1nc2ccc3nc(NC(=O)C4COc5ccccc5O4)sc3c2s1 (configuration not stated)	inactive
O=C(CN1CC(=O)Oc2ccccc21)OCC(=O)c1ccc(F)cc1	active: 17.8 µM
COCCN(CCOC)S(=O)(=O)c1ccc(C(=O)Nc2nnc(CSC)o2)cc1	inconclusive: 14.1 µM [inhibitor, partial curve, poor fit]
OC(c1ccccn1)(c1ccccn1)c1ccccn1	active: 15.8 µM
CCOC(=O)c1ccc2[nH]cc(C(C)=O)c(=O)c2c1	inconclusive: 3.98 µM [inhibitor, single point]
O=C(Nc1cccc(NC(=O)c2cncc(Br)c2)c1)c1cncc(Br)c1	inactive
O=c1[nH]c(-c2ccc3c(c2)OCO3)nc2c1sc(=S)n2-c1ccccc1	inactive
Cc1ccc(S(=O)(=O)N2CCC(C(=O)NCCC3=CCCCC3)CC2)c(C)c1	inactive
CCCCC(=O)N/N=C(C)/C=C/c1ccccc1F	inconclusive: 39.8 µM [inhibitor, single point]
COC(=O)c1ccccc1S(=O)(=O)C(C)(C)C	inactive
S=c1[nH]nc(-c2cccc(Cl)c2)n1Cc1ccccc1	inactive
Cc1c(C#N)c(N)nc(Cl)c1C#N	inactive
C=CCOc1c(Br)cc(CNn2nnnc2N)cc1OCC	inconclusive: 6.31 µM [inhibitor, single point]
O=C(CC1(O)C(=O)Nc2ccc(Br)cc21)c1ccc2c(c1)OCO2 (configuration not stated)	inconclusive: 0.708 µM [inhibitor, single point]
COC(=O)CCN(C)CCC(=O)OC	inactive
Cc1cccc(NC(=O)CCN2CCN(C)CC2)c1	inconclusive: 15.8 µM [inhibitor, partial curve, poor fit]
OCC1CCCCN1C(=S)Nc1cccc(Cl)c1 (configuration not stated)	inconclusive: 0.141 µM [inhibitor, full curve, poor fit]
O=C(NC1CC(=O)N(c2ccccc2)C1)N1CCN(C(=O)c2ccco2)CC1 (configuration not stated)	inactive
CCOc1ccc(-n2c(O)c(/C=N/c3ccnn3Cc3ccncc3)c3ccccc3c2=O)cc1	inconclusive: 0.316 µM [inhibitor, full curve, poor fit]
COCCNC(=S)N1CCN(c2nc(-c3ccc(F)cc3)cs2)CC1	inactive
COc1ccc(NCc2nc3ccccc3n2CCOc2ccccc2)cc1	inconclusive: 39.8 µM [inhibitor, single point]

Compound	Potency
Cc1cc(=O)[nH]c(/N=C(\N)Nc2ccc3c(c2)OCCO3)n1	inconclusive: 1.12 µM [inhibitor, partial curve]
C[C@H]1CNC(=O)C(=O)N1C[C@H](Cc1ccc(O)cc1)NC(=O)CC12CC3CC(CC(C3)C1)C2	inconclusive: 0.794 µM [inhibitor, single point]
CCCCN1C(=O)/C(=C2/Sc3ccccc3N2C)S/C1=N\c1ncn[nH]1	inconclusive: 10 µM [inhibitor, partial curve, poor fit]
CN(C)CCCN(Cc1cc2cc3c(cc2[nH]c1=O)OCO3)C(=S)Nc1cccc(Cl)c1	inconclusive: 25.1 µM [inhibitor, single point]
Cc1ccc(NC(=O)C2CC(=O)N/C(=N/N=C/c3ccco3)S2)cc1 (configuration not stated)	inactive
CCOC(=O)c1cc(-c2ccccc2)sc1NC(=O)C(C)OC(=O)c1cccnc1OCC (configuration not stated)	inconclusive: 39.8 µM [inhibitor, single point]
CCOC(=O)c1sc(NC(=O)c2ccc(S(=O)(=O)N3CCCCCC3)cc2)nc1-c1ccccc1	inconclusive: 0.794 µM [inhibitor, full curve, poor fit]
O=C(COC(=O)/C=C/c1ccco1)Nc1cc(S(=O)(=O)N2CCOCC2)ccc1Cl	inactive
Cc1ccc(S(=O)(=O)N2CCOCC2)cc1C(=O)N1CC(C)CC(C)C1 (configuration not stated)	inactive
O=C(COc1ccc(-c2ccccc2)cc1)NNC(=O)Nc1ccccc1	inactive
CCc1nc(C#N)c(N2CCCCC2)o1	inconclusive: 8.91 µM [inhibitor, partial curve]
O=C1SC(SCc2ccccc2)=N/C1=C\c1ccc(C(=O)O)cc1	inconclusive: 25.1 µM [inhibitor, single point]
COc1ccccc1N1CCN(/N=C/C=C/c2ccccc2[N+](=O)[O-])CC1	inconclusive: 7.94 µM [inhibitor, full curve]
O=C(COc1ccc([N+](=O)[O-])cc1)NNC(=O)c1cccs1	inactive
Cc1ccc(C)c(NC(=O)COC(=O)CNC(=O)C2CCCCC2)c1	inactive
COC(=O)c1ccnc(/C=N/O)c1	inconclusive: 3.98 µM [inhibitor, single point]
C=CC[n+]1c(/C=C2\C=Cc3cc(C)ccc3N2CC)ccc2ccccc21	inconclusive: 5.01 µM [inhibitor, full curve]
Cc1ccc(O)c(N=CC2=C(O)c3ccccc3C2=O)c1	inconclusive: 35.5 µM [inhibitor, single point]
Cc1ccc(S(=O)(=O)c2c(C)cc(C)nc2N2CCOCC2)cc1	inconclusive: 1.12 µM [inhibitor, full curve, poor fit]
Cn1ncc(Br)c1C(=O)N/N=C/c1cccc(OC2CSC2)c1	inconclusive: 0.112 µM [inhibitor, full curve, poor fit]
COc1cc(/C=C2\S/C(=N/S(=O)(=O)c3ccc(C)cc3)NC2=O)c([N+](=O)[O-])cc1OC	inconclusive: 7.08 µM [inhibitor, full curve]
CCN(C(=O)CC(C)C)c1nnc(Cn2nnc3ccccc32)s1	inconclusive: 11.2 µM [inhibitor, partial curve, poor fit]
O=C(NNC(=O)C1CCN(Cc2ccc(Cl)c(Cl)c2)CC1)c1cccs1	inconclusive: 0.1 µM [inhibitor, full curve, poor fit]
C/C(=N\N=C1\NC(=O)CC(C(=O)O)S1)c1ccc(F)cc1 (configuration not stated)	inactive
